Source: PMC12136788
The other results are listed elsewhere or left out.

T1: UNK ZnF1-6 (called full-length) (human, UniProt Q9C0B0 30-357)
T1 sequence: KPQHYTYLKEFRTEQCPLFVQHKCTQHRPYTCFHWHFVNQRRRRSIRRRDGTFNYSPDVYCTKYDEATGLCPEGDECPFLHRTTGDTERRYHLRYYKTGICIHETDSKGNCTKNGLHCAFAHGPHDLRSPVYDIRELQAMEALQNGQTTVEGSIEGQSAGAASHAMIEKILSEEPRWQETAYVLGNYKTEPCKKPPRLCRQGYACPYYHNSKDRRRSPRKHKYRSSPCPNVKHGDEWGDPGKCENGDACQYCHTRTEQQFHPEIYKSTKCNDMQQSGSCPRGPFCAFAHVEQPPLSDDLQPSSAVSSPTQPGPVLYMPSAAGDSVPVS

B1: ENSG00000100393:stop:overlap|stop_codon|ENSG00000100393|stop_codon|NA|stop_codon (ssRNA)
RNA: GGGAGUUCUACAGUCCGACGAUCUCAGCACCGAUAACUCAGACUUGAAUUCAAACCUCUCACAGAGUACACUAGACAUACACUAGAGACACCUUGUAGUAUUUUGGGAGCAAAAAAAUUAUUUUCUCUUAACAAGACUUUUUGCAACAGAGGAUUGAGCAUCA
B2: chr7:93926053:93926159:+|CDS|ENSG00000127920|unk|total|mutant (ssRNA)
RNA: GGGAGUUCUACAGUCCGACGAUCGUCUAAAUGUUCUGAAGAAAUAAAGAACUAUAUUGAAGAACGUUCUGGAGAGGAUCCUCCCGUAAAGGGAAUUCCAGAAGACAAGAACCCCUUUAAAGAAAAAGGCAGCUGUGUUAUUUCCAACAGAGGAUUGAGCAUCA
B3: chr1:27823432:27823533:+|3pUTR|ENSG00000117758|unk|FALSE|unique (ssRNA)
RNA: GGGAGUUCUACAGUCCGACGAUCUUUCAAUAAAAUUACUGUCUUGUAAUAUAAAUGUUGUCCACUUCCCUUUUCCACAGGCCUAGAACAGUUAAAGGGAACAUAAUUUGUUUAGGCUCCCACAUAAAUGUGAAUCUGGCCAACCAACAGAGGAUUGAGCAUCA
B4: chr12:32745429:32745530:+|3pUTR|ENSG00000087470|msi1|FALSE|unique (ssRNA)
RNA: GGGAGUUCUACAGUCCGACGAUCCAACGGAAAGAGAAAAGCCUUCCUUUGUUGGCCCUUAAACUGAGUCAAGAUCUGAAAUGUAGAGAUGAUCUCUGACGAUACCUGUAUGUUCUUAUUGUGUAAAUAAAAUUGCUGGUAUGACAACAGAGGAUUGAGCAUCA
B5: chr1:114567884:114567985:-|3pUTR|ENSG00000116752|msi1|total|mutant (ssRNA)
RNA: GGGAGUUCUACAGUCCGACGAUCUGGUAAUUCUAUUUGUAUAUCUCAACAGAAUUAAAAUGUCCCGCUUGGUGGUAUUUUUACCGCCAUAAAAGAAAAUCUUCCGGCUUUCAAAAUAAGGAUGACUUCCGAAUAAUAUUGUGUCAACAGAGGAUUGAGCAUCA
B6: ENSG00000150403:stop:overlap|stop_codon|ENSG00000150403|stop_codon|NA|stop_codon (ssRNA)
RNA: GGGAGUUCUACAGUCCGACGAUCUGUCCAGGUUCCUCAUGGGCAGUGCUCGGGGUGACAAAGAAGGCAACAGAACAGCCCUCUAGCAGAGCGUCAGUGCAGUCGUGUUAUCCCGGCUUUUACAGAAUAUUCUUGUCCUAUUUUCAACAGAGGAUUGAGCAUCA
B7: chr8:74853834:74853946:+|3pUTR|ENSG00000137558|unk|total|mutant (ssRNA)
RNA: GGGAGUUCUACAGUCCGACGAUCAAGUGCUUUUUUUUUUCUGAAUUAAUCCGGUAUUGGUAAAAUAUAUUUUUAAAUUCCGUCCGCUUUAUAAACACAAUCCGAAUUACAAUUAAUUAACAGAGGUAUAAUUGUCUCACUUUCCAACAGAGGAUUGAGCAUCA
B8: chr14:23097777:23097878:+|CDS|ENSG00000179933|msi1|total|mutant (ssRNA)
RNA: GGGAGUUCUACAGUCCGACGAUCGAUGAAGUGUAUUCUUCACUGGUUUGCCAAUUGGUCAGGUCCCCAGCGUGAACGUUUCCCCGAGGACCUGGCCGCUAAGGCAGUGCCAGAAAAAUUACAACCACUGCUGGACCGUCUGGACAACAGAGGAUUGAGCAUCA
B9: chr1:213241816:213241921:+|CDS|ENSG00000136643|unk|FALSE|unique (ssRNA)
RNA: GGGAGUUCUACAGUCCGACGAUCGAGAAACACUAUGCACAGGAGGAUCCCAGGAUGUUAUUUGUAGCAGCUGUUGAUCAUAGUAGUUCAGGAGAUAUGUCUUUGUUACCCAGCUCAGAUCCUAAGUUUCAAGGACUUGGAGUGCAACAGAGGAUUGAGCAUCA
B10: chr8:35759345:35759454:+|CDS|ENSG00000156687|unk|FALSE|unique (ssRNA)
RNA: GGGAGUUCUACAGUCCGACGAUCCAUCAAGGUGGACAGCUCCUGGAAGAACCAAAAUUGCUGCAUUUCAAAGGGAAUACCUUUAGUCUUCAGAUUUCUGUCCUUGAUAUUCCCCCAUUCCUCUGGAGAAUUAAACCAUUCACUCAACAGAGGAUUGAGCAUCA
B11: chrX:23682378:23682503:+|CDS|ENSG00000123131|unk|total|mutant (ssRNA)
RNA: GGGAGUUCUACAGUCCGACGAUCUUCAUUAUUGAUGACAAAGGAAUCCUAAGACAAAUUACUCUGAAUGAUCUUCCUGUGGGCCGAUCAGUGGAUGAGACACUACGUUUGGUUCAAGCAUUCCAGUACACUGACAAACACGGACAACAGAGGAUUGAGCAUCA
B12: ENSG00000058668:stop:overlap|stop_codon|ENSG00000058668|stop_codon|NA|stop_codon (ssRNA)
RNA: GGGAGUUCUACAGUCCGACGAUCCUUCUGUUCCUGCUGUUUCAUCUCCUCCUAUGGGCAAUCAAAGUGGUCAAAGCGUUCCAUAGUUCCCUCCACGAAAGCAUUCAGAAACCCUACAACCAAAAGUCCAUCCACAGCUUCAUGCAACAGAGGAUUGAGCAUCA
B13: chr1:206903316:206905147:-|three_prime_utr|ENSG00000162894|control|control|control (ssRNA)
RNA: GGGAGUUCUACAGUCCGACGAUCUCUGUGCCCUGAGCAUGGCUCUGCCCCCAGGUCGUCUUGCACACCUUGGCAGCCCCCUGUAGUUGACAGGUAAGCUGUAGGCAUGUAGAGCAAUUGUCCCAAUGCCACUUGCUUCCUUUCCAACAGAGGAUUGAGCAUCA
B14: ENSG00000164535:stop:overlap|stop_codon|ENSG00000164535|stop_codon|NA|stop_codon (ssRNA)
RNA: GGGAGUUCUACAGUCCGACGAUCGCAGUACAGGGACUUCAUCCACGUCAGCUUCCAUGACAAGGUUUACGAGCUGCCGUUUUUAGUGGCUCUGGAUCACAGGAAAGAGUCUGUUGUGGUCGCUGUGAGGGGGACCAUGUCUCUCAACAGAGGAUUGAGCAUCA
B15: chr2:223975255:223975490:-|3pUTR|ENSG00000135919|msi1|total|mutant (ssRNA)
RNA: GGGAGUUCUACAGUCCGACGAUCUUUAAAUUCUUUUCCCCCAUCCCCCUCCAAAGUCUUGACCGCAAGCGUUAUUUUGGUGGCCGAAACGGUGAAAUCUCCCGCCUCUUUGUGUUUUUGUUGUUGUUGUUGUUGUUGUUUUAUCAACAGAGGAUUGAGCAUCA
B16: chr2:130338606:130338707:-|3pUTR|ENSG00000136710|unk|total|mutant (ssRNA)
RNA: GGGAGUUCUACAGUCCGACGAUCUACUCAGCCAAAAGAUCAGGACAAUAUGACUUGAGUCCACAAGGACACAAACACCUGAGCCGCUGGGCAGCCCUUGGCAGGGUCUAAGCCAGGAAGUAAAAAUGAUCUGGCCCCGAUAUUCAACAGAGGAUUGAGCAUCA
B17: chr1:71070866:71070979:-|CDS|ENSG00000132485|unk|total|mutant (ssRNA)
RNA: GGGAGUUCUACAGUCCGACGAUCGAGGAUGAAGAUGACGCUGAUCUCUCAAAAUAUAAUCUUGAUGCCAGUGAAGAAGAAGACCGUAAUAAAAAGAAAUCUAACCGACGAAGUCGCUCAAAGUCUCGAUCUUCACAUUCACGACAACAGAGGAUUGAGCAUCA
B18: chr7:56058368:56058516:+|CDS|ENSG00000146731|unk|total|mutant (ssRNA)
RNA: GGGAGUUCUACAGUCCGACGAUCUACAAGAGUGCAGAAGAGAGAGAAAAACUCGUGAAAGCUGAAAGAAAAUUCAUUGAAGACCGGGUUAAAAAAAUAACCGAACUGAAAAGGAAAGUCUGUGGCGAUUCAGAUAAAGGAUUUCAACAGAGGAUUGAGCAUCA
B19: chr16:84129640:84129741:-|CDS|ENSG00000103160|unk|total|mutant (ssRNA)
RNA: GGGAGUUCUACAGUCCGACGAUCCUUGCAAUAUGAAUAUGCCUCUAAAGGAAUCUUUGUACAGAGUCUAAUCCCUUUCUAUGCCGCCACCAGCAUGACAGCACCCAGCAACUUUCUGCACAGGUGCUCGUGGUUGGUGCCUUCCAACAGAGGAUUGAGCAUCA
B20: ENSG00000182446:stop:overlap|stop_codon|ENSG00000182446|stop_codon|NA|stop_codon (ssRNA)
RNA: GGGAGUUCUACAGUCCGACGAUCGCACGUUCAUGAACCAGCCAGGCACAGGCCACUGCGAGAUGUGCAGCCUCCCCAGGACCUAGGGCGCCUGCCCUCUGCUGGCUAGGACCGGGCCCAGCCCAGCCCUUCCUGAAGCCAGAACAACAGAGGAUUGAGCAUCA
B21: chr17:28717212:28717708:-|CDS|ENSG00000109113|control|control|control (ssRNA)
RNA: GGGAGUUCUACAGUCCGACGAUCGGUGGUCGUAGCGUCUCCGAGACCGCGGACUCCCGUAGGGUCCCCGUGGCCCCGAGUUGUAGUCGGGACACCCCGGCCGCGGGUGAUCGUCGGGUCUCCACGCGCCCGGGUCGCUGACGCCAACAGAGGAUUGAGCAUCA
B22: chr3:94060950:94061511:-|CDS|ENSG00000178700|control|control|control (ssRNA)
RNA: GGGAGUUCUACAGUCCGACGAUCAGUAGACAUGAUUUGGAUAGUUGGUGGCAGUUCUGUUUAUAAGGAAGCCAUGAAUCACCUAGGCCAUCUUAAACUAUUUGUGACAAGGAUCAUGCAGGACUUUGAAAGUGACACGUUUUUCAACAGAGGAUUGAGCAUCA

Molecular target: T1, UNK ZnF1-6 (called full-length)
Experiment: nsRBNS (natural sequence RNA bind-n-seq); RBNS binding buffer (assumed for nsRBNS): 25 mM Tris pH 7.5, 150 mM KCl, 3 mM MgCl2, 0.01% Triton X-100, 500 ug/ml BSA, 20 U/ml SUPERase-In, 4 C; UNK is unkempt and MSI1 is Musashi-1; names of the RNAs are library labels; protein concentration not given here; high values mean tight binding

Binder	binding signal [enrichment R]
B1	0.684
B2	0.428
B3	0.379
B4	0.235
B5	0.399
B6	1.28
B7	1.19
B8	0.36
B9	0.79
B10	0.403
B11	0.441
B12	0.612
B13	0.728
B14	0.231
B15	1.05
B16	0.645
B17	0.409
B18	0.427
B19	0.388
B20	0.263
B21	1.16
B22	0.502
